# In PubChem BioAssay AID686971 (National Center for Advancing Translational Sciences (NCATS), 2013):
# Out of some 360,000 compounds screened, about 7,500 (2.1%) were called active. The shares of active, inactive and inconclusive entries below differ from those in the screen. The call rests on the fitted dose curve; in most records, active means well fitted cell-killing curve with a large enough effect; inconclusive means small, poorly fitted or top-dose-only effect, or effect the other way, or another doubt; inactive means no such curve, though single readings can be large or run the other way. No potency is given beside an inconclusive call; the fits are too rough.
# Assay: qHTS for induction of synthetic lethality in tumor cells producing 2HG: qHTS for the HT-1080-IDH1KD cell line;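 on activity, negative = toxicity: 0% = DMSO wells and -100% = cell-free medium wells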
# Settings: HT-1080 IDH1 knockdown viability, ATP luminescence, 48 h; activity, negative = toxicity: at 46.1 µM (top of the series) unless noted
# Procedure, shortened: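 Assay cells: HT-1080 with IDH1 knockdown, 750 per well, RPMI/5% FBS. Exposure: 48 h at 37 °C following 2 h pre-incubation. Read: CellTiter-Glo luminescence; fitted concentration-response, curve class assigned.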
# Potency means the concentration at half of the fitted maximal effect; tags describe the fitted curve by direction and shape.
SMILES,Potency,"activity, negative = toxicity"
O=C(CC1S/C(=N/N=C/c2c[nH]c3ccccc23)NC1=O)Nc1ccccc1 (configuration not stated),"inconclusive [cytotoxic, single point]",–
O=c1c2cc(N3CCOCC3)ccc2[nH]c(=S)n1Cc1ccco1,"inconclusive [cytotoxic, single point]",–
COc1cc(/C=C/C(=O)OCc2cn3cc(Cl)ccc3n2)ccc1O,"inconclusive [cytotoxic, single point]",–
COc1ccc2oc(=O)c(-c3nc(C)cs3)cc2c1,–,inactive: -2.67%
CCCOc1ccc(C(=O)Nc2cccnc2)cc1,"inconclusive [cytotoxic, single point]",–
Cc1ccc(NC(=O)C2(C)CCN2C(=O)Cc2ccc(C(C)C)cc2)cc1 (configuration not stated),"inconclusive [cytotoxic, single point]",–
CCCOC(c1ccccc1)(c1ccc(C(F)(F)F)cc1)C(Oc1nc(C)cc(C)n1)C(=O)O (configuration not stated),"inconclusive [cytotoxic, single point]",–
CCCCCCCCN1C(=O)[C@H](CC(=O)NCCCCc2ccccc2)C[C@@]2(C(=O)OC)CCCCC=C12,"inconclusive [cytotoxic, single point]",–
COc1ccc(C(c2nnnn2-c2ccc(OC)cc2)N2CCN(C/C=C/c3ccccc3)CC2)cc1 (configuration not stated),"inconclusive [cytotoxic, partial curve]",–
Cc1ccc(C)c(CN2C(=O)C(C)Oc3ccc(C)cc32)c1 (configuration not stated),–,inactive: -17.7%
Cc1nn(-c2ccccc2)c2sc(C(=O)NNC(=O)COc3ccccc3)cc12,"inconclusive [cytotoxic, single point]",–
CC(C)CC1C(=O)N(Cc2cn(CC3CCCCC3)nn2)CCS(=O)(=O)N1Cc1ccc(-c2cccc(CO)c2)cc1 (configuration not stated),"inconclusive [cytotoxic, single point]",–
CCN(CC)C(=O)[C@H]1C[C@H](CC(=O)NCc2cccc(C(F)(F)F)c2)C(=O)N2CCc3c([nH]c4ccc(Cl)cc34)[C@]12C,"inconclusive [cytotoxic, single point]",–
Cc1nn(Cc2c(Cl)cccc2Cl)c(C)c1NC(=O)c1cc(C(C)C)on1,active: 23.1 µM,–
N#Cc1c(NC(=O)CCC(=O)O)sc2c1CCCCC2,–,inactive: 15%
Cc1ccc(S(=O)(=O)N2C[C@H]3[C@H]4C(=O)N(c5ccccc5)C(=O)[C@H]4CC(=O)[C@H]3[C@@H]2c2cccc3ccccc23)cc1,–,inactive: 29%
CCCCCCCCC[n+]1cccc2c3ccccc3ccc21,active: 10.3 µM,–
CN(CC(=O)Nc1c(Cl)cccc1Cl)C(=O)c1n[nH]c2ccccc12,–,inactive: 1.79%
CC1=C(C(=O)N2CCCCCC2)CC(CC(=O)NC(c2ccccc2)c2ccccc2)C(=O)N1CCC1=CCCCC1 (configuration not stated),"inconclusive [cytotoxic, single point]",–
CN(Cc1nc(-c2cnccn2)no1)CC1(c2ccccc2)CC1(C)C (configuration not stated),"inconclusive [cytotoxic, single point]",–
COc1cc(CCC(=O)Nc2ccc(C)c(S(=O)(=O)N3CCCCCC3)c2)cc(OC)c1OC,"inconclusive [cytotoxic, single point]",–
O=C(N/N=C/c1ccco1)c1cc(-c2ccncc2)nc2ccccc12,"inconclusive [cytotoxic, single point]",–
Cn1c(=O)n(C)c2cc([N+](=O)[O-])c(N3CCN(S(=O)(=O)c4ccccc4)CC3)cc21,–,inactive: -0.0018%

SMILES,Potency,"activity, negative = toxicity"
O=C1S/C(=C/c2ccc(N3CCOCC3)o2)C(=O)N1Cc1c(F)cccc1Cl,–,inactive: -18.8%
COc1ccc(NC(=O)Cn2c(C)cc(=O)c3ccccc32)cc1,"inconclusive [cytotoxic, single point]",–
CC(C)NC(=O)c1cccc(C(F)(F)F)c1,–,inactive: 3.77%
CN(Cc1nc2ccccc2c(=O)[nH]1)C(=O)c1cccc(S(=O)(=O)N2CCCC2)c1,–,inactive: -1.92%
CSc1ccccc1C(=O)C1CCCN(Cc2cnn(-c3ccccc3)c2)C1 (configuration not stated),"inconclusive [cytotoxic, single point]",–
CCC(C)n1c(=O)c(C(=O)Nc2ccccc2S(N)(=O)=O)c(O)c2ccccc21 (configuration not stated),"inconclusive [cytotoxic, single point]",–
CCCCOc1ccc(C2C3CN(C(=O)OCC)CC=C3C(C#N)=C(N)C2(C#N)C#N)cc1OC (configuration not stated),"inconclusive [cytotoxic, single point]",–
CCCC(=O)O[C@]1(C(=O)CO)CC[C@H]2[C@@H]3CCC4=CC(=O)CC[C@]4(C)[C@H]3[C@@H](O)C[C@@]21C,–,inconclusive: 21.4%
COc1cccc(N2[C@@H](CC(C)=O)c3ccc(/C=C/C(C)=O)cc3S2(=O)=O)c1,"inconclusive [cytotoxic, single point]",–
O=C(Cc1n[nH]c(=O)c2ccccc12)NC(c1ccccc1)c1ccccc1,"inconclusive [cytotoxic, single point]",–
Cc1cc(C(=O)N/N=C\c2cc(C(C)(C)C)ccc2O)n[nH]1,"inconclusive [cytotoxic, partial curve]",–
CCc1cc2c(=O)c(-c3ccon3)c(N)oc2cc1OC,–,inconclusive: 37.7%
COc1ccc(-c2nn(-c3ccccc3)cc2/C=C/C(=O)O)cc1[N+](=O)[O-],active: 18.4 µM,–
Cc1ccc(C(C(=O)NCc2ccc(F)cc2)N(Cc2ccco2)C(=O)c2snc(C(N)=O)c2N)o1 (configuration not stated),–,inactive: -19.9%
C=CCOc1c(Cl)cc(CNc2ccc(N(C)C)cc2)cc1OC,active: 15.8 µM,–
COc1cc(C(=O)Oc2ccccc2/C=N/NC(=O)c2ccc(C)c(Cl)c2)cc(OC)c1OC,"inconclusive [cytotoxic, single point]",–
COc1ccc(C(=O)NC(=C(Cl)Cl)S(=O)(=O)c2ccc(C)cc2)cc1,"inconclusive [cytotoxic, single point]",–
O=C(c1csc(Nc2ccccc2Cl)n1)N1CCCC1,–,inactive: 8.76%
O=C1CC(NC(=O)C(F)(F)F)c2cc3c(cc21)OCO3 (configuration not stated),–,inconclusive: 30.9%
C=C1C(=O)CC2=C1[C@](Cc1ccc(F)cc1)(C(=O)OC)N(C(=O)c1ccccc1)C2,"inconclusive [cytotoxic, single point]",–
CCC1C(=NO)C(CC)C(c2ccccc2)NC1c1ccccc1 (configuration not stated),"inconclusive [cytotoxic, single point]",–
O=C(Cc1ccccc1)N/N=C/c1ccccn1,"inconclusive [cytotoxic, single point]",–
O=C(CCc1ccc(S(=O)(=O)N2CCOCC2)cc1)Nc1nc(COc2ccccc2)cs1,"inconclusive [cytotoxic, single point]",–

SMILES,Potency,"activity, negative = toxicity"
O=C1NC(=Nc2ccccc2)S/C1=C\c1cccn1-c1ccccc1,"inconclusive [cytotoxic, full curve]",–
COc1ccc(-n2c(SCCNCCO)nc3sc4c(c3c2=O)CCCC4)cc1,"inconclusive [cytotoxic, single point]",–
Cc1ncc([N+](=O)[O-])n1Cc1ccc(F)cc1,–,inconclusive: -9.14% [cytotoxic]
CCC(C)Nc1nc(N)c([N+](=O)[O-])c(Nc2ccccc2OC)n1 (configuration not stated),active: 20.6 µM,–
COCCC(=O)N1CCCC(C(=O)c2ccc(C(F)(F)F)cc2)C1 (configuration not stated),–,inactive: -1.6%
CN(C)CCCN(C(=O)CCOc1ccccc1)c1nc2c(F)cccc2s1,active: 7.31 µM,–
CC(COc1ccccc1)N1CCC(CO)(CCc2ccccc2)CC1 (configuration not stated),"inconclusive [cytotoxic, single point]",–
CCC(C)(C)n1nnnc1C(c1cc2ccc(OC)cc2[nH]c1=O)N1CCc2ccccc21 (configuration not stated),active: 11.2 µM,–
Cc1ccc(Sc2ccc([N+](=O)[O-])cc2[N+](=O)[O-])nc1,active: 23.1 µM,–
CC(C)(C)NC(=O)CN(Cc1cccs1)C(=O)C1COc2ccccc2O1 (configuration not stated),–,inactive: 13.9%
CCCN(C(=O)c1ccc(S(=O)(=O)N2CCCC2)cc1)C1CCS(=O)(=O)C1 (configuration not stated),–,inactive: -10%
COc1cccc(/C=N/NC(=O)c2nc(-c3ccccc3)cc(-c3ccccc3)n2)c1O,"inconclusive [cytotoxic, partial curve]",–
COCCNC(=O)/C(C#N)=C/c1ccc(-c2ccc(OC)cc2[N+](=O)[O-])o1,–,inactive: 10.8%
Cc1cc(-c2c(C)[nH]n(-c3ccc(Cl)cc3)c2=O)n[nH]1,"inconclusive [cytotoxic, partial curve]",–
Cc1cccc(N/N=C/c2ccccc2O)c1,"inconclusive [cytotoxic, partial curve]",–
Cc1ccc(OCC(=O)N/N=C\c2c(C)n(C)c3ccccc23)c([N+](=O)[O-])c1,"inconclusive [cytotoxic, single point]",–
Nc1nonc1C(=O)NCCNCc1ccccc1OCc1ccc(F)cc1,"inconclusive [cytotoxic, single point]",–
O=C(NC1CCN(Cc2ccc(Cl)cc2Cl)CC1)c1ccccc1,–,inactive: 0.665%
CCOC(=O)c1cnc(SCC(=O)Nc2cc(C(F)(F)F)ccc2N2CCOCC2)nc1N,"inconclusive [cytotoxic, single point]",–
CCc1ccccc1N(C(=O)c1snc(C(N)=O)c1N)C(C(=O)NCC1CCCO1)c1c[nH]c2ccccc12 (configuration not stated),"inconclusive [cytotoxic, partial curve]",–
COc1ccccc1CNC(=O)CN1C(=O)NC(c2ccccc2)(c2ccc(C)c(C)c2)C1=O (configuration not stated),"inconclusive [cytotoxic, single point]",–
